Consider 153 variants from a collection of fitness landscapes (doi:10.1126/science.1257360).

The chains are these.
B1: PhoQ; a variant is named by its letters at X, in order, P23837 (parent)
chain: MKKLLRLFFPLSLRVRFLLATAAVVLVLSLAYGMVALIGYSVSFDKTTFRLLRGESNLFYTLAKWENNKLHVELPENIDKQSPTMTLIYDENGQLLWAQRDVPWLMKMIQPDWLKSNGFHEIEADVNDTSLLLSGDHSIQQQLQEVREDDDDAEMTHSVAVNVYPATSRMPKLTIVVVDTIPVELKSSYMVWSWFIYVLSANLLLVIPLLWVAAWWSLRPIEALAKEVRELEEHNRELLNPATTRELTSLVRNLNRLLKSERERYDKYRTTLTDLTHSLKTPLXXLQXXLRSLRSEKMSVSDAEPVMLEQISRISQQIGYYLHRASMRGGTLLSRELHPVAPLLDNLTSALNKVYQRKGVNISLDISPEISFVGEQNDFVEVMGNVLDNACKYCLEFVEISARQTDEHLYIVVEDDGPGIPLSKREVIFDRGQRVDTLRPGQGVGLAVAREITEQYEGKIVAGESMLGGARMEVIFGRQHSAPKDE

Some of the results follow. Bounds are passed on as bounds.

This assay covers variants of B1. Description: enrichment ratio after two sorts for PhoP signalling (ratio (wild type AVST 3.29)); higher = more functional. The note with it: with PhoP (E. coli).
For NVWV, the enrichment ratio is no more than 0.25. The value for QPTY was no more than 0.25. The value for NIAV was no more than 0.25; that for IWRS was no more than 0.25; that for FCMI was 33.7. The value for VMHT was no more than 0.25; that for ILRL was no more than 0.25; that for TLCS was 5.12.

Take KKGS: the enrichment ratio is no more than 0.25.

Consider TMMH, for which the enrichment ratio is 5.83. Next, LFVK: no more than 0.25; MGTY: no more than 0.25; MHYL: no more than 0.25. Consider DPLK, for which the enrichment ratio was no more than 0.25. Consider TQKM, for which the enrichment ratio is no more than 0.25. Next, VCPG: no more than 0.25.

For MYNA, the enrichment ratio was no more than 0.25.

TDRL: the enrichment ratio was no more than 0.25. In the case of QIHT, the enrichment ratio is no more than 0.25. Next, RQRS: no more than 0.25; SNVH: 1.27; AECN: 6.19.

For the variant PAMM, the enrichment ratio was no more than 0.25. Next, QDDT: no more than 0.25.

As for QYMS, the enrichment ratio is no more than 0.25. The value for TEHC was 22.1. Next, MEWC: no more than 0.25; YAPM: no more than 0.25. Next, SALW: 1.24.

Consider STYR, for which the enrichment ratio was no more than 0.25. Next, KLFD: no more than 0.25; LGKS: no more than 0.25. In the case of GWHC, the enrichment ratio was no more than 0.25. For the variant EYYC, the enrichment ratio was no more than 0.25. Next, QILK: no more than 0.25; IEFG: no more than 0.25; NHVM: no more than 0.25. For the variant PLDE, the enrichment ratio was no more than 0.25. SMNY: the enrichment ratio was 3.39. Next, YYFD: no more than 0.25; PQRM: no more than 0.25; KNLP: no more than 0.25. The value for IKYF was no more than 0.25; that for HQGT was no more than 0.25; that for ETDV was no more than 0.25. Next, RDFN: no more than 0.25; ADFA: no more than 0.25; FQGL: no more than 0.25. Consider KWVI, for which the enrichment ratio was no more than 0.25.

As for LQNH, the enrichment ratio was no more than 0.25.

Consider SPNF, for which the enrichment ratio is no more than 0.25.

On to TELY, for which the enrichment ratio was 15.5. Next, ACIL: 10.3; AMYC: 0.507. The value for KAGV was no more than 0.25. Next, WEKD: no more than 0.25; PMCC: no more than 0.25. On to LEKQ, for which the enrichment ratio is no more than 0.25. The value for DTRN was no more than 0.25. Next, MKVY: no more than 0.25; TSVH: 11.7. With EDTT, the enrichment ratio is no more than 0.25. Next, FESA: no more than 0.25; YHAQ: no more than 0.25. The value for PLDW was no more than 0.25; that for KEHL was no more than 0.25. The value for YRFA was no more than 0.25; that for MYDK was no more than 0.25; that for PPAK was no more than 0.25. Consider EHHR, for which the enrichment ratio is no more than 0.25. The value for ITTA was no more than 0.25; that for YREF was no more than 0.25; that for NWPD was no more than 0.25.

Take YPAG: the enrichment ratio is no more than 0.25.

Turning to LFAL, the enrichment ratio was no more than 0.25.

Regarding WFLP, the enrichment ratio was no more than 0.25. Next, TFHE: no more than 0.25; PHPW: no more than 0.25; FMQD: no more than 0.25. With NFCR, the enrichment ratio is no more than 0.25. The value for FYFK was no more than 0.25; that for FFSR was no more than 0.25; that for HKRM was no more than 0.25. For YKAK, the enrichment ratio was no more than 0.25. The value for RIKK was no more than 0.25; that for PEVN was no more than 0.25. On to TWKW, for which the enrichment ratio was no more than 0.25. Next, GDWL: no more than 0.25. The value for IMEW was no more than 0.25; that for IVCD was no more than 0.25; that for FQLS was 5.31.

As to EMPL, the enrichment ratio was no more than 0.25.

As to MSQL, the enrichment ratio is no more than 0.25. Next, IGCC: no more than 0.25. Next, EEVI: no more than 0.25; DAKR: no more than 0.25; ACRW: no more than 0.25. LGGR: the enrichment ratio was no more than 0.25. The value for MVWH was 1.95; that for CCFL was no more than 0.25; that for GNLA was 7.72.

On to HWLS, for which the enrichment ratio is no more than 0.25. Next, PKCH: no more than 0.25. As to AWLY, the enrichment ratio was no more than 0.25.

WFRQ: the enrichment ratio is no more than 0.25. Next, SSTT: 7.44. In the case of DHFF, the enrichment ratio is no more than 0.25.

As to HTIY, the enrichment ratio is no more than 0.25. The value for RFKQ was no more than 0.25. Next, YEMR: no more than 0.25; PRLV: no more than 0.25. Next, GQLW: no more than 0.25. Take KHWV: the enrichment ratio is no more than 0.25. Consider VCMI, for which the enrichment ratio came out at 17.6. The value for IRMA was no more than 0.25. As to SSMR, the enrichment ratio is no more than 0.25.

Take DELP: the enrichment ratio is no more than 0.25.

In the case of GWPC, the enrichment ratio was no more than 0.25. For the variant SGLT, the enrichment ratio was found to be 12.3. As for MWPQ, the enrichment ratio was no more than 0.25.

As for LCGH, the enrichment ratio is no more than 0.25.

As for IKIA, the enrichment ratio is no more than 0.25. Next, KLRS: no more than 0.25; RIFD: no more than 0.25. The value for WKAP was no more than 0.25; that for TKGC was 3.17. Next, PWNA: no more than 0.25; VVAQ: no more than 0.25; DKQY: no more than 0.25.

Regarding MFSP, the enrichment ratio was no more than 0.25.

As to GLVF, the enrichment ratio is 0.422. Next, PHAR: no more than 0.25; AHWM: no more than 0.25; MCWT: no more than 0.25. The value for ANFR was no more than 0.25. Next, IMPL: no more than 0.25.

For SNSP, the enrichment ratio is no more than 0.25.

Consider VSAG, for which the enrichment ratio was no more than 0.25.

Regarding DFQQ, the enrichment ratio is no more than 0.25.

For IQLM, the enrichment ratio amounted to 3.4. As for ADWD, the enrichment ratio is no more than 0.25. The value for MMGP was no more than 0.25; that for RRYI was no more than 0.25; that for YPPQ was no more than 0.25. Next, QMCR: no more than 0.25; GLRV: no more than 0.25.

On to FFWE, for which the enrichment ratio is no more than 0.25.

For YQFT, the enrichment ratio is no more than 0.25. Regarding EFKF, the enrichment ratio is no more than 0.25. The value for IVND was no more than 0.25; that for PRWN was no more than 0.25.

In the case of NNTL, the enrichment ratio was 6.4.

For VIPH, the enrichment ratio was no more than 0.25.
